# In article PMC4336329 (PLoS ONE, 2015):
# In all, about 310,000 compounds went through this assay and about 14,000 (4.5%) showed an effect of 50% or more. Effects have a minus sign here. Some of the results follow.
# Biological target: human ether-à-go-go-related gene (hERG) potassium channel (human, UniProt Q12809)
# Test: primary screen, population patch clamp on CHO cells stably expressing hERG
# 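Further: peak tail current of the secondary pulse compared with the same well before compound.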
# human ether-à-go-go-related gene (hERG) potassium channel, sequence (Q12809 whole entry, looked up): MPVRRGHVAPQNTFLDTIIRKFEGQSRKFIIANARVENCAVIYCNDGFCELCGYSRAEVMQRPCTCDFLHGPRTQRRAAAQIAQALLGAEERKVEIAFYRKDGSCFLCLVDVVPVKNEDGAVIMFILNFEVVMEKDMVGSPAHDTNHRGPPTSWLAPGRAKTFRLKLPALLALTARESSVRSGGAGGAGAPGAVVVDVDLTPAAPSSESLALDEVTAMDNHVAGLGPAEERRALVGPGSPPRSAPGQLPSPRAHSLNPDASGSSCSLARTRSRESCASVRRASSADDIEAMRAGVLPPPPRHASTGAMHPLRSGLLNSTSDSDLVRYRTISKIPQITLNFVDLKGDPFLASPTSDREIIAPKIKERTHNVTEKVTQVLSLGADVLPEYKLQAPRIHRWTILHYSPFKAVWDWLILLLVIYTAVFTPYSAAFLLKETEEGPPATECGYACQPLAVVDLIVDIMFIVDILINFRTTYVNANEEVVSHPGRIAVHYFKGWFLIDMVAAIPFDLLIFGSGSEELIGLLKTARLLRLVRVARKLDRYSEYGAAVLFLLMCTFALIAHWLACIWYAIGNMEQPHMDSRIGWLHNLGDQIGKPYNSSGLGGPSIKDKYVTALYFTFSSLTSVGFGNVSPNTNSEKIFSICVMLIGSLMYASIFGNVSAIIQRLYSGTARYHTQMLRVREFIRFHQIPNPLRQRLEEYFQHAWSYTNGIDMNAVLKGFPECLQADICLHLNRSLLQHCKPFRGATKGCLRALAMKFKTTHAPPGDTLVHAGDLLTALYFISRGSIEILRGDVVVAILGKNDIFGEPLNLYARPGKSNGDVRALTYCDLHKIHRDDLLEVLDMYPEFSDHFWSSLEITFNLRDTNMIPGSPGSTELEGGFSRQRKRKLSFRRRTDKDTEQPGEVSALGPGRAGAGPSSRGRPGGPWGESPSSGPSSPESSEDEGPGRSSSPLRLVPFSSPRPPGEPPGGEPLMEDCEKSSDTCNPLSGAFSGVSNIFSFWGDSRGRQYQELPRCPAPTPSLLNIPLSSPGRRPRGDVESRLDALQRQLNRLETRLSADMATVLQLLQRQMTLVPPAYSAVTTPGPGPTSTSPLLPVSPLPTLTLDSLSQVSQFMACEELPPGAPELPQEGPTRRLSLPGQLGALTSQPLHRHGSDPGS
row,Compound,"hERG current change (%, negative = inhibition) at 10uM [%]"
1,COc1ccc(NC(=O)c2ccc(NS(=O)(=O)c3c(C)noc3C)cc2)cc1OC,23.2
2,CO/N=C/Cc1c([N+](=O)[O-])c(C)nn1C,8.6
3,COc1ccc2[nH]c(=O)c(CN(CCCN(C)C)C(=O)Nc3ccc(F)cc3)cc2c1,-65.7
4,COC(=O)c1cc2n(n1)CCN(Cc1cccc(OC)c1)C2=O,-4.91
5,COc1cccc(CC2(CO)CCCN(Cc3ccc4c(c3)OCCO4)C2)c1 (stereo not shown),-58.5
6,COc1ccc(Oc2cn[nH]c2-c2ccc(O)cc2O)cc1,-6.52
7,CCCCCCCCn1cnc2c(N)c(C)c(C)cc21,12.1
8,CCc1ccccc1N(CC(=O)NC1CCCCC1)C(=O)CCC(=O)Nc1ccccn1,5.54
9,O=C1CCC([N+](=O)[O-])C(c2ccc(Cl)c([N+](=O)[O-])c2)N1 (stereo not shown),10.6
10,CCCCOc1ccc(N2C(=O)CC(NCc3ccncc3)C2=O)cc1 (stereo not shown),-32.7
11,NS(=O)(=O)c1ccc(CCNC(=O)CNC(=O)c2ccc(F)cc2)cc1,25.3
12,CCN(Cc1ccccc1)S(=O)(=O)c1cc2[nH]c(=O)c(=O)[nH]c2cc1C,6.58
13,COc1ccccc1C(=O)NC(=O)COC(=O)c1cc[n+]([O-])cc1,-3.56
14,COc1ccccc1C(=O)NC1CCN(C(=S)NCCc2ccccc2)CC1,-14.4
15,O=C(OCC(=O)N1CCN(c2ccccc2)CC1)c1ccccn1,-6.34
16,Cc1ccccc1C(=O)N/N=C/c1ccncc1,23.8
17,CCC(C)(C)C1CCc2[nH]nc(C(=O)NC(C)C)c2C1 (stereo not shown),12.7
18,Nc1nc(NCc2ccccc2)nc(Nc2cccc(F)c2)c1[N+](=O)[O-],12.9
19,O=C(CCNc1ccc(F)cc1)c1ccco1,-1.99
20,CCN(CC)CCC(c1cc(OC)c(OC)c(OC)c1)c1c(OC)cc(OC)c2c(-c3ccccc3)cc(=O)oc12 (stereo not shown),-16.8
21,COCc1cc(=O)[nH]c(Sc2c(-c3ccccc3)c3ccc(Cl)cc3[nH]c2=O)n1,20.4
22,CN(CC(=O)NCCc1ccccc1)S(=O)(=O)c1ccc(Br)s1,-10.4
23,CCCCC/C(=N\O)c1c[nH]c2ccccc12,-14.4
24,CC(C)(C)c1cc(=O)n2c(nc3ccccc32)[nH]1,20.3
25,COc1ccc(CCNC(=O)c2c[nH]c3ccccc3c2=O)cc1OC,-1.95
